# Measured values from the antibiotic and cytotoxicity screens of Wong et al. (2023).
# The other results are listed elsewhere or left out.
# Legend:
# HSkMC = human skeletal muscle cells; assay: cytotoxicity call (relative viability < 0.9); conditions: 10 µM
# S. aureus RN4220 = assay: growth inhibition call (relative growth <= 0.2); conditions: 50 µM
SMILES,cytotoxicity call (HSkMC),growth inhibition call (S. aureus RN4220)
C[C@@H]1CN([C@@H](C)CO)C(=O)c2cc(-c3cncnc3)cnc2O[C@H]1CN(C)C(=O)Nc1ccc2c(c1)OCO2,inactive,inactive
COc1ccc(S(=O)(=O)N2C[C@@H](O)COC[C@H]3O[C@H](CC(=O)N[C@@H]4CCN(Cc5ccccc5)C4)CC[C@@H]32)cc1,inactive,inactive
COc1ccc([Si](C)(C)[C@H]2[C@H](CC(=O)N(CCO)Cc3ccccc3)O[C@@]3(C(=O)N(Cc4ccc(N5CCC5=O)cc4)c4ccccc43)[C@@H]2C)cc1,inactive,inactive
OCCn1cncn1,inactive,inactive
C[C@@H]1CCCCO[C@@H](CN(C)Cc2ccc3c(c2)OCO3)[C@@H](C)CN([C@H](C)CO)C(=O)c2cc(NC(=O)Nc3ccc4c(c3)OCO4)ccc2O1,inactive,inactive
COc1ccc(S(=O)(=O)Nc2ccc3c(c2)C(=O)N([C@H](C)CO)C[C@H](C)[C@@H](CN(C)Cc2ccc4c(c2)OCO4)OCCCC[C@@H](C)O3)cc1,inactive,inactive
CCS(=O)(=O)NCC[C@@H]1CC[C@H](NC(=O)Cc2ccccn2)[C@@H](CO)O1,inactive,inactive
Cc1cc(C)nc(C#N)n1,inactive,inactive
C[C@H]1CN([C@@H](C)CO)C(=O)c2cc(NC(=O)CCN3CCOCC3)ccc2O[C@@H]1CN(C)C(=O)NC1CCCCC1,inactive,inactive
C[C@H]1CN([C@@H](C)CO)C(=O)c2cc(NS(=O)(=O)c3ccc(F)cc3)ccc2O[C@@H]1CN(C)CC1CC1,inactive,inactive
CO[C@H]1O[C@H](CO)[C@@H](OC(=O)Nc2ccccc2)[C@@H]2OC(=O)[C@@H](Cc3ccc4ccccc4c3)C/C=C/C[C@H](Cc3ccc4ccccc4c3)C(=O)O[C@@H]12,inactive,inactive
CC1(C)NC(=O)N(c2ccc([N+](=O)[O-])c(C(F)(F)F)c2)C1=O,inactive,inactive
C[C@H](CO)N1C[C@H](C)[C@H](CN(C)C(=O)CN(C)C)Oc2cc(C#CCC3CCCC3)ccc2S1(=O)=O,inactive,inactive
Cn1cnc(S(=O)(=O)N2C[C@@H](O)COC[C@H]3O[C@H](CC(=O)NCc4ccc(F)cc4)CC[C@@H]32)c1,inactive,inactive
Cc1cccc(C(=O)O)c1O,inactive,inactive
COc1ccc(C#Cc2cccc(-c3nc(C(=O)N4CCN(Cc5ccccc5)CC4)cc4c3[C@@H](CCO)N(S(=O)C(C)(C)C)C4)c2)cc1OC (some centres undefined),inactive,inactive
CCCN(C)C[C@@H]1OCCCC[C@@H](C)Oc2ccc(NC(=O)CCC(F)(F)F)cc2C(=O)N([C@@H](C)CO)C[C@@H]1C,inactive,inactive
CCOc1nc(N2CCOCC2)nc(N2CCOCC2)n1,inactive,inactive
C[C@@H]1CN([C@H](C)CO)C(=O)c2cc(NC(=O)NC3CCCCC3)ccc2O[C@@H]1CN(C)S(C)(=O)=O,inactive,inactive
Nc1cccc(OCc2ccccc2)c1,inactive,inactive
COc1ccc(NC(=O)Nc2ccc3c(c2)C(=O)N([C@@H](C)CO)C[C@H](C)[C@H](CN(C)Cc2ccc(-c4ccccc4)cc2)O3)cc1,inactive,inactive
COc1ccc(S(=O)(=O)Nc2ccc3c(c2)C(=O)N([C@H](C)CO)C[C@@H](C)[C@@H](CN(C)C(=O)NC(C)C)O3)cc1,inactive,inactive
C[C@@H]1CN([C@H](C)CO)S(=O)(=O)c2ccc(C#C[C@@H](C)O)cc2O[C@@H]1CN(C)C(=O)C1CCCCC1,inactive,inactive
C[C@H]1[C@@H](O)[C@@H](C)\C=C/C=C\C=C/C=C\C=C/C=C\C=C/[C@@H](O[C@H]2O[C@H](C)[C@@H](O)[C@H](N)[C@@H]2O)C[C@H]2O[C@](O)(C[C@@H](O)C[C@@H](O)[C@@H](O)CC[C@@H](O)C[C@@H](O)CC(=O)O[C@H]1C)C[C@@H](O)[C@@H]2C(=O)O,inactive,inactive
Cc1noc(C)c1NC(=O)N(C)C[C@@H]1OCCCC[C@H](C)Oc2ccc(NC(=O)CCC(F)(F)F)cc2C(=O)N([C@@H](C)CO)C[C@H]1C,inactive,inactive
C[C@@H]1CN([C@H](C)CO)C(=O)c2cc(NC(=O)CCN3CCOCC3)ccc2O[C@@H]1CN(C)Cc1ccccc1,inactive,inactive
COc1ccc(NC(=O)N(C)C[C@@H]2OCCCC[C@H](C)Oc3ccc(NS(=O)(=O)c4ccc(Cl)cc4)cc3C(=O)N([C@H](C)CO)C[C@@H]2C)cc1,inactive,inactive
